Screen size: about 310,000 compounds; about 18,000 (5.8%) were called active. Inconclusive means that the source gave no clear call. Such entries were picked first, then a sample of the others. Calls follow the shape of the dose curve; as a rule, active = well fitted inhibition curve with a large enough effect; inconclusive = small, poorly fitted or top-dose-only effect, or another doubt; inactive = no such curve, though single readings can be large or run the other way. Potencies of inconclusive entries are left out as doubtful fits.
Assay: Primary qHTS for delayed death inhibitors of the malarial parasite plastid, 48 hour incubation
Details: P. falciparum luciferase growth in erythrocytes; series mostly up to 28.7 µM; activity change, negative = inhibition: at the top concentration
How it was run: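 Read-out is firefly luciferase luminescence from an integrated reporter in P. falciparum, so falling signal marks reduced parasite growth. Infected erythrocytes were at 2% hematocrit and 0.1% parasitemia (final) in Albumax-supplemented RPMI 1640.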
With `CC(C)N(C(=O)COC(=O)[C@@H]1CC(O)CN1S(=O)(=O)c1ccc(C(C)(C)C)cc1)C(C)C` (stereo not given in full) the Potency was active: 4.15 µM. For `Cc1ccc(-n2c(SCC(=O)Nc3cccc(S(=O)(=O)NC4=NCCCCC4)c3)nc3ccccc3c2=O)cc1`, the Potency was inconclusive [inhibitor, single point]. With `COC(=O)[C@@]12CCCCN1[C@H](c1ccc(-c3cc(C(C)=O)cs3)cc1)[C@H]1C(=O)N(C)C(=O)[C@H]12` the Potency was inconclusive [inhibitor, partial curve, poor fit]. With `COc1ccc(-c2cn[nH]c2-c2ccc(O)cc2O)cc1` the Potency was inconclusive [inhibitor, single point]. With `CCN(CC)CCCN(Cc1cc2ccc(C)c(C)c2[nH]c1=O)C(=O)NC1CCCCC1` the Potency was inconclusive [inhibitor, partial curve, poor fit]. For `Cc1ccccc1OCc1nc2ccccc2c(=O)n1/N=C/c1cn[nH]c1-c1ccccc1`, the Potency was inconclusive [inhibitor, single point]. In the case of `O=[N+]([O-])c1cc(C(F)(F)F)cc([N+](=O)[O-])c1NCCNC(=S)Nc1cccc(F)c1`, the “activity change, negative = inhibition” value is reported as inactive: -15.6%. In the case of `CC(c1ccccc1)n1c(SCC(=O)Nc2ccccc2)n[nH]c1=O` (stereo not given), the “activity change, negative = inhibition” value is reported as inactive: 2.04%. For `CC(=O)OC(C)(C)/C=C/C(=O)[C@](C)(O)[C@H]1[C@H](O)C[C@@]2(C)[C@@H]3CC=C4[C@H](C[C@H](O)C(=O)C4(C)C)[C@]3(C)C(=O)C[C@]12C`, the Potency was active: 3.7 µM. In the case of `CC(=O)Nc1sc(C)c(C)c1C(=O)OCC(=O)Nc1ccccc1`, the “activity change, negative = inhibition” value is reported as inactive: -19.7%. For `COc1ccc(/C=N/NC(=O)c2nnn(-c3nonc3N)c2-c2cccs2)cc1OC`, the Potency was inconclusive [inhibitor, single point]. In the case of `O=C(Nc1ccccc1N1CCOCC1)c1ccc(Br)o1`, the “activity change, negative = inhibition” value is reported as inactive: 6.32%. In the case of `COc1ccc(-n2nc3cc(N)c(Br)cc3n2)cc1`, the “activity change, negative = inhibition” value is reported as inactive: 205%. With `Cc1nc2scc(C)n2c(=O)c1S(=O)(=O)NCC1CCN(Cc2ccc(F)cc2)CC1` the Potency was inconclusive [inhibitor, single point]. For `Cc1cc(C)c(C#N)c(SCS(=O)Cc2ccccc2)n1` (stereo not given), the “activity change, negative = inhibition” value was inactive: 23.9%. For `Cc1cc(NC(=O)CSc2nc3ccccc3c(=O)n2CCCC(=O)NCc2ccccc2)n[nH]1`, the Potency was inconclusive [inhibitor, single point]. With `Cc1ccc2[nH]c(=O)c(CN(Cc3ccc4c(c3)OCO4)Cc3nnnn3C3CCCC3)cc2c1` the Potency was active: 10.4 µM. For `CCOc1ccc(NC(=O)C2CCN(S(=O)(=O)c3cccs3)CC2)cc1`, the Potency was inconclusive [inhibitor, single point]. For `Cc1cccc(C)c1OCC(=O)N(Cc1ccc(N(C)C)cc1)C1CCS(=O)(=O)C1` (stereo not given), the Potency was inconclusive [inhibitor, partial curve, poor fit]. With `CCN1CCN(c2ccc(S(=O)(=O)N3CCOCC3)cc2NC(=O)/C=C/c2ccc(OC)cc2OC)CC1` the Potency was active: 10.4 µM. With `O=C(O)c1ccc(S(=O)(=O)N(Cc2ccccc2)Cc2ccccc2)cc1` the “activity change, negative = inhibition” value was inactive: 11.2%. With `O=S(=O)(NCc1c(Cl)cccc1Oc1ccccc1)c1ccc(F)cc1` the Potency was active: 9.28 µM. For `CN(c1ccccc1)S(=O)(=O)c1cccc(NC(=O)c2cccc(C#N)c2)c1`, the Potency was active: 13.1 µM. With `NC(=O)COc1ccc(/C=N\NC(=O)c2ccc(-c3ccccc3)cc2)cc1` the “activity change, negative = inhibition” value was inactive: 11.4%. In the case of `COc1ccc(N2CCN(S(=O)(=O)CCNC(=O)c3cccs3)CC2)cc1`, the “activity change, negative = inhibition” value is reported as inactive: 0.731%. In the case of `O=C(Nc1ccccc1)c1c(O)c2c(n(Cc3ccco3)c1=O)CCCC2`, the Potency is reported as inconclusive [inhibitor, single point]. With `O/N=C/c1ccc(OCc2ccccc2F)c(Cl)c1` the “activity change, negative = inhibition” value was inactive: 300%. With `COc1cc(C(=O)NC2CC3CCCC(C2)N3CC(=O)Nc2ccccc2)cc(OC)c1OC` (stereo not given) the Potency was inconclusive [inhibitor, full curve]. In the case of `CCc1ccc(/C=C2\Oc3ccc(C(=O)OC)cc3C2=O)cc1`, the Potency is reported as inconclusive [inhibitor, single point]. In the case of `CCN1CCCC1CNC(=O)c1cc2c(C)nc3ccccc3c2o1` (stereo not given), the Potency is reported as active: 9.28 µM. For `COc1ccc(N=C2SC(CC(=O)Nc3ccccc3)C(=O)N2Cc2ccccn2)cc1` (stereo not given), the Potency was inconclusive [inhibitor, single point]. For `COc1ccc(C(=O)Nc2cc3c(cc2N2CCCCC2)n(C)c(=O)n3C)cc1OC`, the Potency was inconclusive [inhibitor, partial curve, poor fit]. With `Cc1cn(C(=O)c2ccccc2)c(=S)n1-c1ccc(Br)cc1` the Potency was inconclusive [inhibitor, single point]. In the case of `c1csc(-c2cc(N3CCCCC3)c3ccccc3n2)c1`, the Potency is reported as inconclusive [inhibitor, partial curve]. For `COc1ccc(-c2csc(NC(=O)C3=COCCO3)n2)c(OC)c1`, the “activity change, negative = inhibition” value was inactive: 30.6%. For `CCOC(=O)c1ccc(NC(=O)c2nc(SC)ncc2Cl)cc1`, the “activity change, negative = inhibition” value was inactive: -28.9%. For `COc1ccc(CC(=O)Nc2c(C(N)=O)oc3ccccc23)cc1OC`, the “activity change, negative = inhibition” value was inactive: -8.01%. In the case of `COC(=O)[C@@H]1CC[C@H](C)[C@@H](c2ccc(C)cc2)N1C(=O)c1ccc(/C=N/O[C@H](C)c2cn([C@@H]3COC[C@H]3O)nn2)cc1`, the Potency is reported as inconclusive [inhibitor, single point]. In the case of `CC1CCN(C(=O)CN2C(=O)NC3(CCCc4ccccc43)C2=O)CC1` (stereo not given), the “activity change, negative = inhibition” value is reported as inactive: -25.9%. For `COc1ccc(NC(=O)Cc2cccc(F)c2)cc1S(=O)(=O)Nc1ccccc1Cl`, the Potency was inconclusive [inhibitor, partial curve]. With `COc1ccc(CN2C(=O)CN(C3CCCCCC3)C(=O)C2c2ccc(F)cc2)cc1` (stereo not given) the Potency was inconclusive [inhibitor, single point]. With `Cn1c(COc2ccccc2)nnc1SCCSc1nnc(COc2ccccc2)n1C` the “activity change, negative = inhibition” value was inactive: -5.62%. For `CN1C(=O)C(C)(C)c2cc(S(=O)(=O)N3CCCC3C(=O)NCc3ccccc3Cl)ccc21` (stereo not given), the Potency was inconclusive [inhibitor, partial curve]. For `CCOc1ccc(CCNC(=O)C2CCN(S(=O)(=O)c3ccc(C)cc3)CC2)cc1OCC`, the “activity change, negative = inhibition” value was inactive: -4.57%. With `Cc1cccc(S(=O)(=O)N2CCn3cccc3C2C)c1` (stereo not given) the Potency was inconclusive [inhibitor, single point]. For `CCOC(=O)c1cccc(NC(=O)CN(c2ccc(C)cc2)S(=O)(=O)c2c(C)n[nH]c2C)c1`, the Potency was inconclusive [inhibitor, full curve]. For `CCOc1ccc(C(C)=O)cc1CSc1nc2nc(C)cc(C)n2n1`, the “activity change, negative = inhibition” value was inactive: -17.2%. For `O=C(NC(=S)NC(c1ccccc1)c1ccncc1)c1ccccc1` (stereo not given), the Potency was inconclusive [inhibitor, single point]. With `COc1ccc(N2CCN(C(=O)C(=O)c3c[nH]c4ccccc34)CC2)cc1` the “activity change, negative = inhibition” value was inactive: 6.73%. In the case of `CC1CCN(CCOCCOc2ccccc2-c2ccccc2)CC1`, the Potency is reported as inconclusive [inhibitor, single point]. In the case of `CCOc1ccc(S(=O)(=O)Nc2ccc(C(=O)NN)cc2)cc1`, the “activity change, negative = inhibition” value is reported as inactive: -27.9%. With `O=Cc1c[nH]c2ccc(OCc3ccccc3)cc12` the Potency was inconclusive [inhibitor, single point]. With `CCOC(=O)N1CCN(c2cc(N(C)CCO)c([N+](=O)[O-])c3nonc23)CC1` the “activity change, negative = inhibition” value was inactive: -13.7%. For `Cc1nn(Cc2ccc(Cl)c(Cl)c2)c(C)c1NC(=O)c1cc(CC(C)C)on1`, the Potency was inconclusive [inhibitor, single point]. In the case of `Cc1c(-c2ccccc2)nc2ccccc2c1C(=O)Oc1ccc([N+](=O)[O-])cc1`, the Potency is reported as inconclusive [inhibitor, partial curve]. For `O=C(NCCCn1ccnc1)/C(=C\c1ccccc1Cl)NC(=O)c1ccccc1`, the “activity change, negative = inhibition” value was inactive: 0.732%. With `O=C1CN(C(=O)COc2ccc(F)cc2Br)c2ccccc2N1` the Potency was inconclusive [inhibitor, single point]. For `C=CCN(c1ccccc1)S(=O)(=O)c1cccc(C(=O)Nc2ncccc2C)c1`, the Potency was inconclusive [inhibitor, single point]. With `COc1ccccc1C1/C(=C(/O)c2ccc(C)cc2)C(=O)C(=O)N1CCN1CCOCC1` (stereo not given) the “activity change, negative = inhibition” value was inactive: 11%. For `CC1(C(=O)N2CCN(c3ccc([N+](=O)[O-])cc3)CC2)CC1(Cl)Cl` (stereo not given), the “activity change, negative = inhibition” value was inactive: 29.4%. In the case of `Cc1cc(=O)oc2c(C)c(OCC(=O)Nc3cccnc3)ccc12`, the Potency is reported as inconclusive [inhibitor, partial curve, poor fit]. In the case of `CCOC(=O)c1c(S(=O)(=O)NCC(=O)Nc2cc(C)ccn2)c(C)n(C)c1C`, the Potency is reported as inconclusive [inhibitor, single point]. In the case of `Cn1c(-c2ccco2)n[nH]c1=S`, the “activity change, negative = inhibition” value is reported as inactive: -0.845%. For `CCc1nc(N2CCN(C(=O)c3ccccc3)CC2)c(C#N)c2c1COC(C)(C)C2`, the Potency was active: 9.28 µM. With `COc1ccc2ccccc2c1CNC(=O)CC1C(=O)NCCN1CC(C)(C)C` (stereo not given) the Potency was inconclusive [inhibitor, partial curve, poor fit]. In the case of `Cc1cc(C)c(S(=O)(=O)c2ccc(Cl)cc2C)c(Cl)n1`, the “activity change, negative = inhibition” value is reported as inactive: -14%. For `O=[N+]([O-])c1cc(-c2cnc3ccccc3n2)ccc1Oc1ccc(Br)cc1`, the “activity change, negative = inhibition” value was inactive: 31.6%. For `COc1cccc(N2CCN(Cc3nc(N)nc(Nc4ccccc4OC)n3)CC2)c1`, the Potency was inconclusive [inhibitor, single point]. For `Cc1ccc(C)c(NC(=O)CN(C)C(=O)[C@@H](NC(N)=O)C(C)C)c1`, the “activity change, negative = inhibition” value was inactive: 39.5%. In the case of `Cc1cc(C)cc(N(C(=O)c2ccccn2)C(C(=O)NC2CCCCC2)c2cccs2)c1` (stereo not given), the Potency is reported as inconclusive [inhibitor, partial curve, poor fit].

From PubChem BioAssay AID504832 (National Center for Advancing Translational Sciences (NCATS), 2011)
% is scaled to controls: 0 for no effect and ±100 for the full control effect; potency is read from the fitted curve at half-maximal effect; tags tell the direction and shape of the fitted curve.
